From PubChem BioAssay AID1963843 (Molecular Pharmacology Branch, DTP, NCI, 2024)
Certain results were filed several times, with different values. This list holds those alone. The source may hold further records. The records of an entry repeat one measurement across runs, samples, wells, individuals or studies. Dates in brackets are months of testing.

The molecules below were run on 616215-338-R-J1-PDC complex spheroid viability (assay: Anticancer human tumor 616215-338-R-J1-PDC patient-derived colon adenocarcinoma cell line growth inhibition [POLQ]). Details: compound alone.
Method: Multicellular complex tumor spheroid response to Polymerase (POL) inhibitors (novobiocin, ART-558, RP6685) in combination with a variety of drugs and investigational agents in selected tumor cell lines
The POL inhibitors (novobiocin, ART-558, and RP6685) were evaluated both individually and in combination with standard of care and investigational anticancer small molecules within a complex spheroid model of solid tumors. . Complex spheroids include a stromal component modeled by human endothelial cells (HUVEC) and fibroblasts modeled by human mesenchymal stem cells (MSCs). The concentration ranges selected for each drug and investigational agent were based upon clinically achievable concentrations if the clinical Cmax of the agent was known.
Compounds. The drugs and investigational agents: novobiocin (NSC847541), ART-558 (NSC835418), RP-6685 (NSC848927), peposertib (NSC802822), ceralasertib (NSC780249), elimusertib (NSC800525), camonsertib (NSC841442), AZD-1390 (NSC803789), olaparib (NSC753686), talazoparib (NSC767125), rucaparib (NSC756644), sotorasib (NSC818433), MRTX-1133 (NSC836407), SN-38 (NSC673596), topotecan (NSC609699), epotoside (NSC141540), doxorubicin (NSC123127), gemcitabine (NSC613327), 5-fluorouracil (NSC19893), paclitaxel (NSC125973), vemurafenib (NSC761431), MSA-2 (NSC828583), SN-011 (NSC837082), adavosertib (NSC754352), prexasertib (NSC758257), carboplatin (NSC241240) and oxaliplatin (NSC266046), were obtained from the National Cancer Institute (NCI) Developmental Therapeutics Program Chemical Repository (21). The FDA-approved anticancer drug set is available from the Developmental Therapeutics Program at https://dtp.cancer.gov/organization/dscb/obtaining/. […] The stock solutions were prepared in dimethyl sulfoxide (DMSO, Sigma-Aldrich, St. Louis, MO, cat. D2650), except for the platinum compounds which were prepared in saline (Quality Biological, Gaithersburg, MD, cat. 114-055-101), at 800-fold the tested concentration and stored at -70 degrees C prior to their use. All drugs and investigational agents were tested over a range starting from a high concentration at or near the clinical Cmax and decreasing in half-log increments. If the clinical Cmax for an agent had not been determined, the highest concentration tested was 10 microM, except for SN-38, which was tested at a high concentration of 1 microM.
Cell Culture. All cells were maintained in an incubator at 37 degrees C and 5% CO2 with 95% humidity. The PDC lines were cultured according to standard operating procedures established by the NCI PDMR (https://pdmr.cancer.gov). Table 3 of the manuscript, lists the cell lines along with the number of the three cell types plated to form the mct-spheroids and media for tumor cell growth. […]
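Note: spheroids exposed to compounds for one week before readout.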

SMILES	IC50
CCc1c2c(nc3ccc(O)cc13)-c1cc3c(c(=O)n1C2)COC(=O)[C@]3(O)CC	100 nM, 96.2 nM [2023-11] and 9.77 nM [2023-12]
CC1COCCN1c1cc(C2(O)CC3CCC(C2)O3)c2cnn(-c3ccn[nH]3)c2n1 (centres undefined)	1.55 µM, 4.9 µM [2023-11] and 305 nM [2023-12]
CC1COCCN1c1cc(-c2ccnn2C)c2ccnc(-c3ccn[nH]3)c2n1 (centres undefined)	792 nM, 2.7 µM [2023-11] and 208 nM [2023-12]
O=c1[nH]cc(F)c(=O)[nH]1	> 10 µM [2023-11] and 506 nM [2023-12]
